Source: PubChem BioAssay AID624296 (National Center for Advancing Translational Sciences (NCATS), 2012)
In all, about 350,000 compounds went through this assay and about 9,900 (2.8%) were called active. This list was built around the results that the source calls inconclusive (neither active nor inactive); the mix of calls is not that of the screen. Calls come from the whole dose curve; as a rule, active = well fitted activation curve with a large enough effect; inconclusive = small, poorly fitted or top-dose-only effect; inactive = no such curve, though single readings can be large or run the other way. No potency is given beside an inconclusive call; the fits are too rough.

Experiment: A quantitative high throughput screen for small molecules that induce DNA re-replication in MCF 10a normal breast cells. Note: nearly all actives have a fitted effect of over 50% in size.
Details: MCF 10A DNA re-replication, Hoechst nuclear intensity, 48 h; series mostly up to 46.1 µM
Potency is the fitted concentration of half-maximal effect; tags give direction and shape of the fitted curve.

Compound | Potency
COc1ccc(NC(=O)CN2C(=O)COc3ccc(S(=O)(=O)N4CCCCC4)cc32)c(OC)c1 | inactive
CCOC(=O)N1CCN(C(=S)Nc2ccc3nc(N4CCN(CC)CC4)cc(C)c3c2)CC1 | inconclusive [activator, single point]
CCN(C(=O)c1ccc2c(Cl)c3c(nc2c1)CCC3)c1ccc(C)c(C)c1 | inconclusive [activator, partial curve, poor fit]
O=C1CC(c2ccccc2)c2cc(O)ccc2O1 (stereo not drawn) | inconclusive [activator, single point]
CN1C(=O)C(O)(CC(=O)/C=C\c2ccc3c(c2)OCO3)c2ccccc21 (stereo not drawn) | inconclusive [activator, single point]
Cc1ccc(S(=O)(=O)N(CC2CO2)c2cc(Cl)ccc2Cl)cc1 (stereo not drawn) | inconclusive [activator, single point]
CCC(C)(C)NC(=O)c1ccc2c(c1)N(CC(=O)N1CCCC1)C(=O)C(C)(C)O2 | inactive
C[C@H](NC(=O)c1nc[nH]c1C(=O)N[C@@H](Cc1ccccc1)C(=O)OC(C)(C)C)c1ccccc1 | inconclusive [activator, partial curve, poor fit]
Clc1ccc(-c2ccnc(Oc3ccc4ccccc4c3)n2)cc1 | inconclusive [activator, full curve, poor fit]
CC(=O)/C(=N\Nc1ccccc1Cl)Sc1cccc2cccnc12 | inconclusive [activator, partial curve, poor fit]
Cc1cccc(-n2c(Cn3nc(C)c([N+](=O)[O-])c3C)n[nH]c2=S)c1 | inconclusive [activator, single point]
Cc1ccc(CNC(=O)COC(=O)C2CC2)cc1 | inactive
COC(=O)c1ccc(C)c(NC(=O)c2nn(C)c(=O)c3ccccc23)c1 | inconclusive [activator, single point]
COc1ccccc1NC(=O)N(Cc1ccc2c(c1)OCO2)Cc1nc2ccccc2c(=O)[nH]1 | inactive
Cc1ccc(N2CC(NC(=O)C3CC3)CC2=O)cc1 (stereo not drawn) | inconclusive [activator, full curve, poor fit]
CC(C)n1c(-c2ccc(C(C)(C)C)cc2)n[nH]c1=S | inactive
CCOc1ccc(CCNC(=O)c2nn(C)c3c2CS(=O)(=O)c2ccccc2-3)cc1OCC | inactive
COCCn1c(-c2ccccc2)nc2ccccc21 | inconclusive [activator, single point]
Cc1ccc(S(=O)(=O)NCCNc2ccc([N+](=O)[O-])cc2C(F)(F)F)cc1 | inconclusive [activator, partial curve, poor fit]
O=C(N/N=C/c1cc2c(cc1[N+](=O)[O-])OCO2)c1ccccn1 | inconclusive [activator, single point]
O=C(Nc1ccc(N2CCN(C(=O)c3ccccc3)CC2)c(Cl)c1)c1ncn[nH]1 | inconclusive [activator, full curve, poor fit]
COC(=O)c1cnn(-c2nc(OC)cc(OC)n2)c1C | inactive
CCOc1ccc(C(=O)C2CCN(CC(=O)Nc3ccccc3N3CCOCC3)CC2)cc1 | active: 7.31 µM
N#C/C(=C\c1ccc(-c2ccccc2[N+](=O)[O-])o1)C(N)=O | inconclusive [activator, partial curve, poor fit]
CCCn1c2ccc(F)cc2c2nnc(SCCN3CCCCC3)nc21 | inconclusive [activator, partial curve, poor fit]

Compound | Potency
Nc1cc(Cl)ccc1C(=O)OCC(=O)N1CCCCCC1 | inconclusive [activator, single point]
COc1ccc(-c2nc3ccccn3c2NCc2ccc3c(c2)OCO3)cc1 | inconclusive [activator, single point]
COc1ccc(CS(=O)/C(Cl)=C(/Cl)C(=O)Nc2ccc(OC)nc2)cc1 (stereo not drawn) | inconclusive [activator, full curve, poor fit]
Cn1c(SCC(=O)N/N=C/c2ccccn2)nnc1-c1ccccc1 | inactive
O=C(Nc1nc(-c2ccccn2)cs1)c1ccco1 | inconclusive [activator, partial curve, poor fit]
COC(=O)c1ccc(Nc2nc(N3CCOCC3)nc(N3CCOCC3)n2)cc1 | inactive
COc1ccc(NC(=S)NC(=O)c2ccc(Br)o2)cc1 | inactive
CCOc1ccccc1CN1CCN(Cc2ccc3cc(F)ccc3n2)CC1CCO (stereo not drawn) | inconclusive [activator, single point]
Cc1ccccc1C1c2[nH]c3ccccc3c2C[C@H]2C(=O)N(c3ccccc3C(=O)NCCCN3CCOCC3)C(=O)N12 (stereo partly drawn) | active: 11.6 µM
CCOC(=O)C(C(=O)N(C)Cc1ccccc1)C1CCCCC1 (stereo not drawn) | inactive
CCNC(=O)CN1C(=O)NC2(CCCc3cc(OC)ccc32)C1=O (stereo not drawn) | inconclusive [activator, single point]
O=C(NC(CSCc1ccccc1)C(=O)N/N=C/c1ccc(O)cc1O)c1ccc([N+](=O)[O-])cc1 (stereo not drawn) | inactive
CCOc1ccccc1CN1CCNC(=O)C1CC(=O)N(C)Cc1nonc1C (stereo not drawn) | inactive
Cc1cccc(C)c1NC(=O)CN1CCCC1 | inactive
Cc1cc(CN2CCCC(C(=O)Nc3ccc(-c4nc5ccccc5[nH]4)cc3)C2)n[nH]1 (stereo not drawn) | inactive
O=C1Nc2ccccc2O/C1=C\c1ccccc1 | inconclusive [activator, partial curve, poor fit]
O=C(NCCC(=O)N(CCc1ccccc1)Cc1ccccc1)c1ccc(Br)cc1 | inconclusive [activator, single point]
Cc1nc2c(sc(=S)n2Cc2ccco2)c(=O)n1CC(=O)Nc1ccc(F)cc1 | inactive
CC(C)(C)N(Cc1ccccc1)C(=O)CN1C(=O)NC2(CCCCCC2)C1=O | inactive
Cc1nc2cc(NS(=O)(=O)c3cccc4cccnc34)ccc2s1 | inconclusive [activator, single point]
C/C(=C\c1ccccc1)C1NC(=O)c2c(sc3c2CCCC3)N1 (stereo not drawn) | active: 20.6 µM
CC1(c2ccc(NC(=O)c3ccccc3F)cc2)CC1(Cl)Cl (stereo not drawn) | inactive
O=C(NCC(c1ccco1)N1CCc2ccccc2C1)c1ccccc1Br (stereo not drawn) | inconclusive [activator, full curve, poor fit]
O=C(CN1CCN(S(=O)(=O)c2ccc(Cl)cc2)CC1)Nc1ccc2c(c1)CCC2 | inactive
Cc1ccnc(NS(=O)(=O)c2ccc(NC(=O)Cc3ccc(F)cc3)cc2)n1 | inconclusive [activator, single point]

Compound | Potency
CCc1nc(SCC(=O)c2cc(C)ccc2C)n[nH]1 | inconclusive [activator, single point]
CC1Cc2ccccc2N1C(=O)CSc1nnc2c(n1)[nH]c1ccc(F)cc12 (stereo not drawn) | inactive
COc1ccccc1/C=C1\S/C(=N/NC(=O)c2cccc(Br)c2)NC1=O | active: 10.3 µM
CCc1cc(C(=O)Nc2cc(S(=O)(=O)N(CC)CC)ccc2N2CCN(C)CC2)sc1C | inactive
Cc1ccc(-n2c(Cc3cccc4ccccc34)n[nH]c2=S)c(C)c1 | inconclusive [activator, partial curve, poor fit]
CC(=O)N/C(=C\c1ccccc1)C(=O)OCC(=O)N(C)C1CCCCC1 | inactive
COc1ccc(-c2ccc3c(c2)S(=O)(=O)c2cccc(C(=O)NCc4ccccc4Cl)c2C3=O)cc1OC | inactive
O=C(Nc1ccc2c(c1)OCCO2)C1CCCN(S(=O)(=O)c2cccc3nsnc23)C1 (stereo not drawn) | inactive
Cc1ccccc1CSCC(=O)Nc1ccccc1-c1ccccc1 | inactive
CC(C)(C)c1ccc(C(=O)CSc2ncn[nH]2)cc1 | inconclusive [activator, partial curve, poor fit]
CCOc1ccc(-c2nnc3ccc(SCC(=O)Nc4nc5ccc(C)cc5s4)nn23)cc1 | inconclusive [activator, partial curve]
O=C(/C=C/c1ccc(Cl)cc1Cl)NCCSCc1ccccc1 | inconclusive [activator, single point]
CC(=O)CC1(OC(C)=O)C(=O)N(C)c2ccccc21 (stereo not drawn) | inconclusive [activator, single point]
O=C(Nc1ncccc1O)c1ccc(Oc2ccccc2)cc1 | inactive
O=C(CCn1nc(-c2ccc(Cl)cc2)ccc1=O)N1CCN(c2ccc(F)cc2)CC1 | inactive
N#C/C(=C/c1cccs1)c1ccccn1 | inactive
CC(=O)c1ccc(N/C=C/C(=O)c2ccc(Br)cc2)cc1 | inactive
CCc1nnc(NC(=O)c2sc3nc4cc(C)ccc4cc3c2N)s1 | inconclusive [activator, partial curve]
COc1ccc2oc(=O)cc(-c3cc4ccccc4o3)c2c1 | inconclusive [activator, partial curve, poor fit]
C=CCn1c(SCC(=O)N(CCOC)c2c(N)n(CC(C)C)c(=O)[nH]c2=O)nc2ccccc21 | inactive
Cc1cc(C)c(N=C2SCC(=O)N2Cc2ccco2)c(C)c1 | inactive
COc1cc2c(c(OC)c1OC)-c1ccc(NC(=O)c3ccc(F)cc3)c(=O)cc1[C@@H](NC(C)=O)CC2 | active: 3.26 µM
O=C(Nc1ccc(N2CCCC2)c(Cl)c1)c1ccc(Br)o1 | inconclusive [activator, single point]
